# Some of the results follow.
# B1: 31314769_31314965_1062_CDS_ENSMUSG00000036882_ENSMUST00000044338|mouse|control|control (ssRNA)
# RNA: GGGAGUUCUACAGUCCGACGAUCCCUGUAGAUUCCAUCCACCACACCAUGGGCCUCAAUAAACUCAGAGCAGCAGCGCAGCACUUGGGGCACGUCUUGGCCUGAGUUGCUGAGGUGCUCUCCAAGAUCACAACCAAACACCCUCAACAGAGGAUUGAGCAUCA
# B2: chr13:21488354:21488355:-_ENSMUSG00000021327_ENSMUST00000070785|mus_hu|FALSE|FALSE (ssRNA)
# RNA: GGGAGUUCUACAGUCCGACGAUCUUCCUCCACCUUUAUGACCAGAAGCUCCAUCUGGUCUUCUGUAGACUGGGCAUCCAGGGCUGUGCUUUCACUUAAUUCUCUAGCCAUCCUAGGCCAAGGCAGUACUCAGGCCUCACUCUACAACAGAGGAUUGAGCAUCA
# B3: chr2:66073698:66073699:-_ENSMUSG00000034848_ENSMUST00000102718|mus_mus|motif|central (ssRNA)
# RNA: GGGAGUUCUACAGUCCGACGAUCCUGCUGGAAUUCACUGAAGAACUCCAACUGCUGGUCUGCAUCUUGCAACUGCCCCUCGGUUAACUGACAUCGGAUAAGUCCGGUGACAGCAGAGAUGUUGCUCUCAUUCAGCGUCAUGGCCAACAGAGGAUUGAGCAUCA
# B4: chr13:100204638:100204639:-_ENSMUSG00000052727_ENSMUST00000064762|mus_hu|FALSE|FALSE (ssRNA)
# RNA: GGGAGUUCUACAGUCCGACGAUCAGGAGUGGGCACCUGGCCAGUGAGAUCCUUUUGGGUGGCCAGUGGCUGCUUCAGAAAGUCUAGAUGUUUGAGCUUUUCCAACCCUUCCAGGAUGUUGUACUGGGUGCUGUUCCCAGGAAACAACAGAGGAUUGAGCAUCA
# B5: chr5:146798188:146798189:-_ENSG00000113657_ENST00000343218|hu_hu|FALSE|FALSE (ssRNA)
# RNA: GGGAGUUCUACAGUCCGACGAUCCUUCCCAUUGGCUUCAAUGGUCUUCACUCCUCCAGGAACAAUCAGAUUGUCUCCAAUUUGUUUUAUUAAGCCAUCUUCCAUGUAAAUAUCAGCAUAAAAGGACUGAUCAUCAUUGACGAUCAACAGAGGAUUGAGCAUCA
# B6: chr1:247070963:247070964:-_ENSG00000153207_ENST00000391829|hu_hu|motif|central (ssRNA)
# RNA: GGGAGUUCUACAGUCCGACGAUCCUGAUUUGUCCUGCUUAUGUAACUAAGAGUUGAAACAGCUGUUCCUGUUGGACUUACGGACUGGAAACACAGAUGGCGCCCUUGUCUCAUUACACUUUCUCUAAUGUGUGGUACUUCAGCCAACAGAGGAUUGAGCAUCA
# B7: chr19:2271408:2271409:+_ENSG00000104904_ENST00000602676|hu_hu|FALSE|FALSE (ssRNA)
# RNA: GGGAGUUCUACAGUCCGACGAUCGAUCUUCAGGGGUGGGUGAGGGGCAUCGGAGCACCACCGAGGCCCCGGACCCGGGUUACUACAGCAGUGGAGGGAGACCCUGGAACUCUCACUGCUGCUGCCGCCGCGGCUGUGCAGGCUCAACAGAGGAUUGAGCAUCA
# B8: chr8:23117756:23117757:+_ENSG00000147457_ENST00000313219|hu_hu|motif|central (ssRNA)
# RNA: GGGAGUUCUACAGUCCGACGAUCAGCUUCAAGUUCAGCAUCUGAGAUCCUAGGGUUAGGCACGCUGUUGGUAAAAUGCCGGUUGCGGGGGUUGUCAGGCAGAUCCAAAGGUUCUUUGGUGGUAUCCUGAAGGAGGAUGUCCAACAACAGAGGAUUGAGCAUCA
# B9: chr1:36758251:36758252:+_ENSG00000054118_ENST00000354618|hu_mus|FALSE|FALSE (ssRNA)
# RNA: GGGAGUUCUACAGUCCGACGAUCGUGUAUCUCUGGGCUUUUCUUAUUUUUAGCUGCUUCUUGUUCAUUUCCUCUCUUUAGGUAUUUAGUAAAGCGUUCAUGCAAUGUCAUUCCAGAGGAUCCAAAGUGAUGCUCUUUAACAUGCAACAGAGGAUUGAGCAUCA
# B10: chr1:158563958:158563959:+_ENSMUSG00000026596_ENSMUST00000166172|mus_mus|motif|central (ssRNA)
# RNA: GGGAGUUCUACAGUCCGACGAUCUGUCCAUUUAAUAGGAAAUUUGGCUCCAGCAUGAGCAGUGUAGGUAUCUCCAGUCAUCAGUCGGCUUAAACCAAAGUCGGCCACUUUCACCACAUGGUUCUCGCCCACUAGGCAGUUCCGCAACAGAGGAUUGAGCAUCA
# B11: 24909548_24909668_1702_CDS_ENSG00000107863_ENST00000396432|human|control|control (ssRNA)
# RNA: GGGAGUUCUACAGUCCGACGAUCAUAAUCUGUCGUGCUUUGAGAUGCUGCUCUUAAACUAUCUAAUCUUUCUUGUAUUGUCCGACAACCUAUGUGCAAUCGUCUGUUAUCAAUAUACUCUUUGUAAGUUUUAUAGUUUUUCCACAACAGAGGAUUGAGCAUCA
# B12: chr10:92717539:92717540:-_ENSMUSG00000008398_ENSMUST00000008542|mus_hu|FALSE|FALSE (ssRNA)
# RNA: GGGAGUUCUACAGUCCGACGAUCCUGGAACAGCGUGCUUGGCCCUUGCAGCCUGGCAGGACUCAGCGGAGCAACUGGACUAAGGCUGCUCCAGAAAUGUAUGCUGGAGAGCAGUGGACUCGGAGUCAGAAGCAAUCCAUUUGGCAACAGAGGAUUGAGCAUCA
# B13: chr4:83276511:83276512:-_ENSG00000138668_ENST00000353341|hu_hu|FALSE|FALSE (ssRNA)
# RNA: GGGAGUUCUACAGUCCGACGAUCCUUCACCACCUGUUGGGGAUAAGUUGCAAAUGGAAUAAUUUAGUAUGGUUUGUAGCUAUUUUGAUGACCACCUCGCCUGGAUACCUUCCCAUAACCACUCUGCUGGUCACCACCUCUUCCCAACAGAGGAUUGAGCAUCA
# B14: 76045722_76045842_1366_CDS_ENSG00000078687_ENST00000588847|human|control|control (ssRNA)
# RNA: GGGAGUUCUACAGUCCGACGAUCAACUGAUGAUCCAUUAGCACCAGGAAGGCCUUGCAGGUGGGGCGGGAUGAUGGCCCCCAUACCAACAGCCAUGCCCCAGUUUGGCAGUCCAUUUGUCUGCAUUGCAUUGAUAGGGUUGGGCAACAGAGGAUUGAGCAUCA
# B15: chr1:25687284:25687285:+_ENSG00000183726_ENST00000374358|hu_hu|FALSE|FALSE (ssRNA)
# RNA: GGGAGUUCUACAGUCCGACGAUCUCGUGAUUUUAGUAUUACACAACUUUAAGCUGAGACUACACUCAGAAAUAAGUUUAGAAAAUGGCAUUACAAAAGGUUGGGAGUGAGCAGUAAAAAAACAAACAAACCCAUGCAGGGCUGCAACAGAGGAUUGAGCAUCA
# B16: chr12:86369911:86369912:+_ENSMUSG00000021244_ENSMUST00000021670|mus_hu|FALSE|FALSE (ssRNA)
# RNA: GGGAGUUCUACAGUCCGACGAUCAAAAGCUGGUUUGGGGCCUUUCCACUGUGGUCCACUCUGUCGAGGACUUAGGGAUGUACUGGGGGUAAUAUAAAAUUGAGAUGCUGGCCCCCGGGGAAUCAUUCCCCACUUGCUUUUAGUCAACAGAGGAUUGAGCAUCA
# B17: 161332164_161332284_660_3pUTR_ENSG00000143252_ENST00000367975|human|control|control (ssRNA)
# RNA: GGGAGUUCUACAGUCCGACGAUCAAACAGAAAGAUGGGUGAAUGUAAUAAUGUGUAGGAAGAUGAUGCUGGGAGCCUCCUUUCUUCACAUGGCUGCCAGCCCCAUAGAGGACAACACAGUAAGAACCAGGACAACCACUCCAGCAACAGAGGAUUGAGCAUCA
# B18: chr18:35731649:35731650:+_ENSMUSG00000037236_ENSMUST00000166793|perfect_dup|FALSE|FALSE (ssRNA)
# RNA: GGGAGUUCUACAGUCCGACGAUCCCCUACUGAGAGAUGACUGCUGGAAUGACUUGGACAUUGUAGAACUAGCUCUUGUCUAUUUUAUAGAUUAAAAAAAAAAAUUUUUUUAAAGACGGCCAAAAAGAAAGCUCAAACUAGAAACAACAGAGGAUUGAGCAUCA
# B19: chr12:80258887:80258888:-_ENSMUSG00000021124_ENSMUST00000055262|mus_hu|FALSE|FALSE (ssRNA)
# RNA: GGGAGUUCUACAGUCCGACGAUCGUUUACCAGUCUACUCUUGGUACGUUCUAACUGGUCUCGUUGUUCCCCCAGCUCUUCUAUGAUUUCUGAGCCAAUCUGGUCAGUCUCUGUGGCAAUCCGAUGAGAACGUUCAAUACUUUGCAACAGAGGAUUGAGCAUCA
# B20: chr17:57760048:57760049:+_ENSG00000141367_ENST00000269122|hu_hu|FALSE|FALSE (ssRNA)
# RNA: GGGAGUUCUACAGUCCGACGAUCUGCCUGAUAUUCACCCAGGUGAACCAGGGUAGAUGCCAAACGUCCAAAAUUGGAAACAUUAUUGUACAACAACUUAGCAGCAUCAUACAUUUUUUCAUCAUAACAACGGUCACCAACUUGCAACAGAGGAUUGAGCAUCA
# B21: chr11:75570464:75570465:+_ENSMUSG00000020849_ENSMUST00000067664|perfect_dup|motif|central (ssRNA)
# RNA: GGGAGUUCUACAGUCCGACGAUCACGGUCGGGGGAAUUAAGAAUUUCAUAGUAGAAUACGGAAAAGUUGAGAGCAAGACCGGAACGAAUGGGGUGCGUUGGAGGAAGUUCUGUCAUCGCAAUGUCACUAGCAGCUUUGUAAGCCAACAGAGGAUUGAGCAUCA
# B22: chr4:175180916:175180917:-_ENSG00000164117_ENST00000503293|hu_mus|FALSE|FALSE (ssRNA)
# RNA: GGGAGUUCUACAGUCCGACGAUCAUUAAAGGUGAGGCUUCCCUCAUCUAGCUGCAUAUACAAUUUUCUAAAAGAAAAUCCUAAAGGUGGGUUCUUAUUGUAUAUAGAGCAGUGACCCCAUGUAGAUUUACACAACCCUUGCCACAACAGAGGAUUGAGCAUCA
# Target: T1, UNK ZnF1-3 (human, UniProt Q9C0B0 31-174)
# T1 sequence: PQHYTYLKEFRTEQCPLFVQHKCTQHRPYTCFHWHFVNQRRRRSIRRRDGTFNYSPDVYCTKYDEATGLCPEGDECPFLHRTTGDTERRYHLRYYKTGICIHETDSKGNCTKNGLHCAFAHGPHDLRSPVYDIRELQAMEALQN
# Assay: nsRBNS (natural sequence RNA bind-n-seq); RBNS binding buffer (assumed for nsRBNS): 25 mM Tris pH 7.5, 150 mM KCl, 3 mM MgCl2, 0.01% Triton X-100, 500 ug/ml BSA, 20 U/ml SUPERase-In, 4 C; UNK is unkempt and MSI1 is Musashi-1; names of the RNAs are library labels; protein concentration not given here; high values mean tight binding
row,Binder,binding signal
1,B1,0.879 enrichment R
2,B2,1.13 enrichment R
3,B3,0.892 enrichment R
4,B4,1.16 enrichment R
5,B5,1.23 enrichment R
6,B6,0.811 enrichment R
7,B7,0.893 enrichment R
8,B8,1.12 enrichment R
9,B9,0.539 enrichment R
10,B10,0.889 enrichment R
11,B11,0.638 enrichment R
12,B12,0.773 enrichment R
13,B13,0.992 enrichment R
14,B14,1.16 enrichment R
15,B15,0.704 enrichment R
16,B16,1.05 enrichment R
17,B17,1.59 enrichment R
18,B18,3.14 enrichment R
19,B19,0.504 enrichment R
20,B20,0.876 enrichment R
21,B21,1.82 enrichment R
22,B22,1.14 enrichment R
